Data published in PubChem BioAssay AID1159614 (National Center for Advancing Translational Sciences (NCATS), 2016).
The whole screen tested about 45,000 compounds, of which about 65 (0.1%) were called active. The call rests on the fitted dose curve; in most records, active means well fitted activation curve with a large enough effect; inconclusive means small, poorly fitted or top-dose-only effect; inactive means no such curve, though single readings can be large or run the other way. This is one part of the list.

target: Galactocerebrosidase (Homo sapiens) (UniProt P54803); test: A Novel Cell-Based Assay to Identify Small Molecules for B -Galactocerebrosidase; details: 145M-Twi-hGALC-G270D cells, HMU-beta-Gal fluorescence, 48 h; series mostly up to 57.5 µM; activation: at the top concentration; further: 0% is about no effect; nearly all actives have a fitted effect of over 65% in size
Summary of the method: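 qHTS, 1536-well; 145M-Twi-hGALC-G270D cells (WT line also made) in DMEM/F12 + 10% FBS; compound incubation on live cells; HMU-β-gal 0.1 mM final, pH 5.2, NaTC; carbonate stop; fluorescence increase = enhanced residual activity.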

Chain of UniProt P54803 (P54803 whole entry, looked up): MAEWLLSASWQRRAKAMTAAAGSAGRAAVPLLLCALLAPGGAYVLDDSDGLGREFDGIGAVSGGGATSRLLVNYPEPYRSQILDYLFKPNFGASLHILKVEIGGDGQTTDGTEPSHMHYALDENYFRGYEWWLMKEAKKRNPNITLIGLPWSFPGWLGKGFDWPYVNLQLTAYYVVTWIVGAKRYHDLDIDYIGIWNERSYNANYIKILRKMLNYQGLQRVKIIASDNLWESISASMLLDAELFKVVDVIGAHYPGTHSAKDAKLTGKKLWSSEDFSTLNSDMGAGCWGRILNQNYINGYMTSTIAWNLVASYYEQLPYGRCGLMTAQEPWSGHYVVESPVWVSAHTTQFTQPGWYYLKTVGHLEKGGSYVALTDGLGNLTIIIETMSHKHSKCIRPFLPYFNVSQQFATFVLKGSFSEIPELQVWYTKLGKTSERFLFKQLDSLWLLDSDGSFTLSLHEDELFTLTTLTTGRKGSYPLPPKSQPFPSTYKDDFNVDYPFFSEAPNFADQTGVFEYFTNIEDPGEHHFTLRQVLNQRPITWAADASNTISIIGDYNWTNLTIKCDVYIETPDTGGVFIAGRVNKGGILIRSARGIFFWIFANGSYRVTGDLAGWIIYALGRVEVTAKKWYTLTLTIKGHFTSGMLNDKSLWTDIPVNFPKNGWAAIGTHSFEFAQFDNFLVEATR

activation, inactive:
Cn1c(=O)c2nc(SCC(=O)Nc3ccc(OC(F)(F)F)cc3)n(C)c2n(C)c1=O -5.45%
COc1ccc(CC(=O)Nc2c(C(=O)N3CCN(c4ccccc4)CC3)oc3ccccc23)cc1OC -23%
CC1CCCN(CCCNC(=O)c2cc(Sc3ccc(F)cc3)nc3ccccc23)C1 (stereo not given) -4.69%
COc1cc(NC(=O)Cn2nc(C(F)(F)F)c3c2CCC3)cc(OC)c1OC 2.59%
COc1cc(OC)cc(-c2cc3nc(C)c(CCC(=O)NCCc4cccc(C)c4)c(C)n3n2)c1 -8.31%
O=C(CCn1c(=O)c2ccccc2n(CC(=O)Nc2cccc(F)c2)c1=O)NCCc1ccccc1 -7.59%
COc1ccc(OC)c(CNC(=O)c2ccc(N3Cc4ccccc4Oc4ncccc43)s2)c1 -31%
COc1cccc(CNC(=O)c2cc3c(-c4ccccc4F)nn(C)c3s2)c1 -12.5%
CCOC(=O)c1cccc(NC(=O)CCSCCc2ccccn2)c1 -13.6%
O=C(CCCn1c2ccccc2c(=O)c2ccccc21)Nc1cccc(Cl)c1 -5.06%
COc1cc(C2Nc3ccccc3-c3cc(C)nn32)ccc1O (stereo not given) -18.9%
Cc1ccc(NC(=O)Cn2nc(-c3ccccc3)nc(Cc3ccc(Cl)cc3)c2=O)cc1 -12.3%
Cc1noc(-c2ccc(-c3noc(-c4ccc(F)cc4)n3)cc2)n1 -14.7%
COCCn1c(SCC(=O)Nc2cc(Cl)ccc2OC)nc2c([nH]c3ccccc32)c1=O -5.82%
O=C(NCCc1ccc(Cl)cc1)c1c2c(nc3ccccc13)C(=O)N(C1CCCCC1)C2 -4.55%
Cc1csc2nc(COC(=O)c3ccccc3NC(=O)c3cccc(Br)c3)cc(=O)n12 -1.49%
O=S(=O)(c1ccc(Br)s1)N1CCN(c2cccc(C(F)(F)F)c2)CC1 -12.4%
CCCCCn1c(NCc2ccc(OC)cc2)nc2ccccc21 9.49%
Cc1ccc(C(=O)c2cn(CC(=O)Nc3ccc(C(C)C)cc3)c3nc(C)ccc3c2=O)cc1 -18.3%
Cc1ccc(NC(=O)CSc2nnc(-c3ccc([N+](=O)[O-])cc3)o2)c(C)c1 -17.3%
CCS(=O)(=O)N1CCCC(C(=O)NCCOC)C1 (stereo not given) -8.56%
CCOc1ccc(C(=O)Cn2c(=O)n3nc(CCn4nc(C)cc4C)nc3c3cc(OC)c(OC)cc32)cc1 0.495%
Cc1cccc(N(C)c2nc3ccccc3c3nnc(C)n23)c1 -13.8%
COC(=O)Cn1c(=O)c2cccn2c2ccc(F)cc21 -7.59%
COc1cc(NC(=O)c2cc(C3CC3)nc3c2c(C)nn3-c2ccccc2)cc(OC)c1 -14.3%
Cc1ccccc1N1CCN(S(=O)(=O)c2nnc(NC(=O)c3ccc(C(C)C)cc3)s2)CC1 -14%
Cc1cc(C)cc(NC(=O)Cn2c(-c3cncs3)nc3ccccc32)c1 -8.82%
Cc1ccccc1NC(=O)CC(NCc1cccnc1)C(=O)O (stereo not given) -15.7%
CCOC(=O)c1ccc(NC(=O)c2cnc3c(-c4ccc(F)cc4)c(C)nn3c2C)cc1 -6.22%
COc1ccc(-n2nc(C(=O)Nc3ccccn3)c3c4ccccc4n(C)c3c2=O)cc1 -0.471%
COc1ccccc1OC(C)C(=O)Nc1cccc(-c2nc3ccccc3s2)c1 (stereo not given) -31.2%
Cc1cc(C)n(-c2nc3ccccc3nc2Nc2ccc(N(C)C)cc2)n1 -8.08%
CCOc1ccc(-c2nc3c(c(SCC(=O)Nc4ccccc4C)n2)Cc2ccccc2O3)cc1 -10.4%
Cc1ccccc1Cn1nnc2c(=O)[nH]c(C3CCN(C(=O)c4ccc(F)cc4)CC3)nc21 -2.84%
Cc1cc(C)c(Cn2c3ccccc3c3cnn(CC(=O)NCc4cccs4)c(=O)c32)c(C)c1 -8.77%
CN(C)c1ccc(CNC(=O)c2ccc(Cn3c(SCc4ccccc4)nc4cccnc43)cc2)cc1 -15.6%
Cc1ccccc1CNC(=O)c1ccc2c(c1)c(C)c(C)n2C 3.74%
CCc1ccc(CNC(=O)c2cnc3sc(N4CCCC4)nn3c2=O)cc1 -4.58%
Cc1ccc(Cl)cc1NC(=O)C1CCN(c2nnc(C)c3c(C)n(-c4ccccc4)nc23)CC1 -8.78%
CCc1cccc(NC(=O)COC(=O)c2cn(CC)c3nc(C)ccc3c2=O)c1 1.95%
CCCc1cc(=O)[nH]c(SCC(=O)N2CCN(c3ccccc3)CC2)n1 1.61%
COc1ccc(CNC(=O)CSCc2nc(-c3ccccc3C)oc2C)cc1 -13.5%
COc1ccc(CNC(=O)c2ccc(-c3nc(CSc4ccccc4)c(C)o3)cc2)cc1OC -13.1%
CCc1ccc(-n2c(=O)c3c4c(sc3n(CC(=O)c3ccc(F)cc3)c2=O)CCC4)cc1 -30.3%
CCC(C)NC(=O)CCCN1C(=O)CCn2nc(-c3cccn3C)cc21 (stereo not given) -16.6%
COc1ccc(-c2ccc3c(N)c(C(=O)c4ccc(OC)c(OC)c4)sc3n2)cc1 -17.7%
CC(C)c1nn2c(=O)cc(COC(=O)c3ccc(NC(=O)COc4ccccc4)cc3)nc2s1 3.35%
COc1ccccc1C(=O)Nc1ccccc1OCc1cc(=O)n2c(C)csc2n1 -17.3%
CC(=O)Nc1nonc1-c1nnc(SCC(=O)Nc2ccc(C)cc2)n1-c1ccccc1 -14.2%
COC(=O)c1ccccc1NC(=O)c1cc(-c2ccccc2O)no1 -0.0182%
CCCN1CCN(c2ncnc3sc(C(=O)Nc4ccc(C(C)C)cc4)c(C)c23)CC1 -5.07%
O=C(CS(=O)(=O)c1cccc2nsnc12)N1CCN(c2cccc(Cl)c2)CC1 -18.6%
COc1ccc(-c2cc(-c3ccccc3)c(C#N)c(SCC(O)CS(=O)(=O)Cc3ccc(Cl)cc3)n2)cc1 (stereo not given) -21%
CCOC(=O)c1sc2cccc(F)c2c1S(=O)(=O)NCc1ccccc1Cl -22.2%
COc1ccc(NC(=O)CN2C(=O)CCn3nc(-c4cccn4C)cc32)cc1Cl -18.1%
O=S(=O)(c1ccc(-c2cc(C(F)(F)F)on2)s1)N1CCN(c2ccccc2F)CC1 -23%
Cc1cccc(NC(=O)Cn2nnc(-c3nc(-c4ccncc4)no3)c2N)c1 -10.1%
COc1ccc(CN2CCc3c(c(=O)n4ncc(C(=O)N5CCN(c6ccccc6OC)CC5)c4n3C)C2)cc1 -26.5%
Cc1ccc(NC(=O)CN2C(=O)c3ccccc3Sc3ccc(C(=O)N4CCOCC4)cc32)cc1F 5.94%
COc1cccc(N2CCN(C(=O)c3ccc(C)c(NC(=O)c4nsc5ccccc45)c3)CC2)c1 -14.8%
COc1cc(SC)ccc1C(=O)Nc1ccc(S(=O)(=O)Nc2nccc(C)n2)cc1 -20.8%
Cc1ccc(C(c2sc3nc(-c4ccco4)nn3c2O)N2CCCC2)cc1 (stereo not given) -2.95%
Cc1ccc(N(CC(=O)NCCc2ccc(Cl)cc2)S(=O)(=O)c2c(C)noc2C)cc1 -2.4%
COc1ccc(NC(=O)CN2C(=O)CCn3nc(-c4cccn4C)cc32)cc1 -12.2%
CCOC(=O)C1CCN(c2cc3c(cc2NC(=O)c2ccc(Cl)cc2)n(C)c(=O)n3C)CC1 -14.1%
CCOc1ccc(Nc2oc(-c3ccc(COc4ccc(OC)cc4)o3)nc2C#N)cc1 -15.1%
Cc1cc(Nc2ccccc2F)n2nc(-c3ccccc3)nc2n1 -13%
COc1ccc(S(=O)(=O)NCc2ccc3c(c2)CCN3C(=O)c2ccccc2)cc1OC -4.87%
COC(=O)c1ccc(Cl)cc1NC(=O)N1CC2CCCN2c2ccccc21 (stereo not given) -10.6%
Cc1ccc(NC(=O)C(=O)NCC(c2cccnc2)N2CCN(Cc3ccccc3)CC2)cc1C (stereo not given) -38.2%
COc1ccccc1OCCn1c(NC(=O)c2ccccc2Cl)nc2ccccc21 -18.5%
Cc1cc(C)c(Nc2nc3ccccc3n3c(C)nnc23)c(C)c1 -18.7%
COc1ccc(NC(=O)Cn2cc(S(=O)(=O)N3CCN(c4ccccc4F)CC3)c3ccccc3c2=O)cc1Cl -18.2%
CCN(CC)CCCNc1oc(/C=C/c2ccc(OC)c(OC)c2)nc1C#N -8.78%
CCOC(=O)C1=C(CN2CCN(c3ccc(OC)cc3)CC2)NC(=O)NC1c1ccc(OC)cc1 (stereo not given) -16%
Cc1ccc(Nc2nc3nonc3nc2Nc2cccc(C(F)(F)F)c2)cc1Cl -3.7%
CNc1c(NC(=O)c2ccc(OC)c(OC)c2)c(=O)oc2ccccc12 -22.5%
CCOc1ccc(-c2cc(C(=O)N3CCN(c4cc(Cl)ccc4C)CC3)c3ccccc3n2)cc1 -13.5%
Cc1ccc(NC(=O)CSc2nnc3scc(-c4ccc(Cl)cc4)n23)cc1 -5.46%
CCN(CC)C(=O)Cn1c(=O)cc(C)c2c(C)nn(-c3cccc(Cl)c3C)c21 -23.7%
COc1cccc(CNC(=O)C2CCC(CNS(=O)(=O)c3ccc4c(c3)CCCC(=O)N4)CC2)c1 (stereo not given) -7.28%
Cc1cc(C)cc(NC(=O)NCCc2c(C)nn(C)c2C)c1 -10.7%
Cc1ccc(NC(=O)C(Cc2c[nH]c3ccccc23)NC(=O)OC(C)(C)C)c(C)c1 (stereo not given) -11.6%
CCc1ccc(C(=O)c2cn(CC(=O)Nc3ccc4c(c3)OCO4)c3ccc(CC)cc3c2=O)cc1 -8.07%
Cc1cc2c(cc1S(=O)(=O)CCC(=O)N1CCC(C)CC1)OCC(=O)N2 -13.3%
Cc1ccc(C)c(CSc2nnc3[nH]c(=O)cc(C)n23)c1 -6.56%
Cc1ccc(S(=O)(=O)n2nc(C)c(S(=O)(=O)N3CCCCCC3)c2C)cc1 11.2%
CC(C)c1nn2c(=O)cc(COC(=O)c3cccc(NC(=O)COc4ccc(F)cc4)c3)nc2s1 -1.91%
Cc1cc2c(n1-c1ccc(C(=O)NCCc3ccc(Cl)cc3)cc1)CCCC2 -18.8%
Cc1nc(N2CCCC2)c2c(C(=O)N3CCN(c4ccccc4)CC3)c(C)oc2n1 3.33%
CC(C)C(=O)Nc1nnc2n1CCS2 2.49%
CCC(Cn1nnc2ccccc2c1=O)NC(=O)Nc1cc(C)cc(C)c1 (stereo not given) -11.7%
CCOc1ccc(CNC(=O)c2cccc(NC(=O)N3CCSc4ncccc43)c2)cc1OC -1.07%
CCc1ccc(C(=O)c2cn(CC(=O)Nc3ccc(Cl)cc3)c3cc4c(cc3c2=O)OCO4)cc1 -6.47%
CC(=O)N1CCCc2cc(S(=O)(=O)N3CCCC(C(=O)N4CCN(c5cccc(Cl)c5)CC4)C3)ccc21 (stereo not given) 12.6%
